# Measured values: publication PMC4336329 (PLoS ONE, 2015)
# In all, about 310,000 compounds went through this assay and about 2,200 (0.71%) showed an effect of 50% or more. The effect is printed as a negative number. This is one part of the list. Where a SMILES comes first, the peptide text is derived from it. [ ]: non-standard residue; d: D form. The star is where a group is joined. Cbz = O=C(OCc1ccccc1)*
# Target: human ether-à-go-go-related gene (hERG) potassium channel (human, UniProt Q12809)
# Sequence (Q12809 whole entry, looked up): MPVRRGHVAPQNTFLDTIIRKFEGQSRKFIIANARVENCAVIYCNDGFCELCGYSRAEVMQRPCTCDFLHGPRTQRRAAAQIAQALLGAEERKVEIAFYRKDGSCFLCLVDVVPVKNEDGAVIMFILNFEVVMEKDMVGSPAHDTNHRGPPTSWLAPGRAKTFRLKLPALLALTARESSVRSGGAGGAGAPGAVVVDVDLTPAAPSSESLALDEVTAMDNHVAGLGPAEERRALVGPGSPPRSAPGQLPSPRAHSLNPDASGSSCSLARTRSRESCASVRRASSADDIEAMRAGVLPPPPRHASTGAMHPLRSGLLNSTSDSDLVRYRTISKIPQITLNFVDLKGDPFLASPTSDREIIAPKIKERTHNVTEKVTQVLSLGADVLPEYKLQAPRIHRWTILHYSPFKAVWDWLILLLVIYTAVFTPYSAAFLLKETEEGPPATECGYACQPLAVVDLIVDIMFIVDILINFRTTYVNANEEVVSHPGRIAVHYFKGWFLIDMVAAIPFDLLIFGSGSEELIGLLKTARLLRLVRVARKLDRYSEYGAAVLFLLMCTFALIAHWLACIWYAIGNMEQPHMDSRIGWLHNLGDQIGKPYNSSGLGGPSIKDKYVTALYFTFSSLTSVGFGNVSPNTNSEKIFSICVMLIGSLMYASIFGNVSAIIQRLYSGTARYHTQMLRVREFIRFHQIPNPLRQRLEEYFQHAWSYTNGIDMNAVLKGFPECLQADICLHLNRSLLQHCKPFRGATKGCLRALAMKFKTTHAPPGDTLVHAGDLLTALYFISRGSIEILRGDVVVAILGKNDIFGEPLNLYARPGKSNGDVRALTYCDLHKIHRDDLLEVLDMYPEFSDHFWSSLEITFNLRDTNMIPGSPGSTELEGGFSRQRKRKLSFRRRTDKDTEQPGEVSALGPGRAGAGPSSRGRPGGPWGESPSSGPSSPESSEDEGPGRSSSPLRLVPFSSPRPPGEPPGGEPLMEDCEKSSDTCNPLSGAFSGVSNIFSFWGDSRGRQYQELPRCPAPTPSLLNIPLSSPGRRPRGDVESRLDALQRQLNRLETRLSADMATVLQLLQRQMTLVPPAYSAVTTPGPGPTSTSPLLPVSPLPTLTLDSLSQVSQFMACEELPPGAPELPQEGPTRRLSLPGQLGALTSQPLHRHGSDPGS
# Assay: primary screen, population patch clamp on CHO cells stably expressing hERG
row,SMILES,"hERG current change (%, negative = inhibition) at 1uM [%]"
1,O=C(COc1ccc(Cl)cc1)NCCc1cnc[nH]1,5.31
2,COc1ccc(N(C(=O)c2cnccn2)C(C(=O)NC2CCCCC2)c2ccc(Cl)cc2)cc1 (centres unmarked),5.85
3,COc1ccc2[nH]c(=O)c(CN(Cc3cccs3)S(=O)(=O)c3c(C)ccc4nsnc34)cc2c1,-8.43
4,O=c1c(Cc2ccccc2)c(O)ccn1Cc1ccc2c(c1)OCO2,8.02
5,CN1/C(=C/C=C(C#N)C#N)C(C)(C)c2ccccc21,10.9
6,O=C(CCCOc1ccccc1)Nc1cccc(S(=O)(=O)N2CCCCC2)c1,-0.501
7,COc1ccc(C(=O)Nc2ccccc2C(=O)O)cc1Cl,8.44
8,CCNC(=O)NC(=O)C(C)OC(=O)c1cccnc1SC (centres unmarked),4.88
9,CCc1nc2sc3c(c2c(=O)n1NC(=O)CCl)CCCC3,3.5
10,CN(Cc1nc(-c2ccncc2)no1)S(=O)(=O)c1ccc(Br)cc1,-27.4
11,CC[C@@]12C(=O)N(c3cccc(C)c3)C(=O)N1[C@H](c1ccc(Br)cc1)[C@@H]1C(=O)N(C(C)(C)C)C(=O)[C@@H]12,8.57
12,O=C(N1CCCCC1)N1CCCN(C(=O)N2CCCCC2)CC1,11.3
13,CCN(C(=O)c1ccccc1Cl)c1ccccc1,6.14
14,Nc1nnc(SCC(=O)c2ccccc2)s1,3.52
15,CCN(CCCNC(=O)C1CCN(S(=O)(=O)N2CCOCC2)CC1)c1cccc(C)c1,12
16,CSc1ccc(S(=O)(=O)NC2CC2)cc1,16.1
17,Cc1ccc(-n2nnnc2C(=Cc2ccc(N(C)C)cc2)c2nnnn2-c2ccc(C)cc2)cc1,11.8
18,Cc1cccc(-n2c(SC(C)C(=O)O)nc3sc4c(c3c2=O)CCCC4)c1 (centres unmarked),16.2
19,O=c1[nH]cnc2c1ncn2Cc1ccc([N+](=O)[O-])cc1,23.9
20,O=C(O)C(=O)O.O=C(c1cccc(F)c1)N1CCN(CC2CC3C=CC2C3)CC1 (centres unmarked),11.8
21,COc1cc(OC)c(C(=O)Oc2ccc3c(c2)OCO3)cc1OC,9.14
22,CCCOc1ccc(C(O)CCNC(CC(=O)O)c2ccccc2)cc1 (centres unmarked),22.5

row,SMILES,"hERG current change (%, negative = inhibition) at 1uM [%]"
1,CCOC(=O)C1(C(F)(F)F)N=C(C(F)(F)F)Nc2ccccc21 (centres unmarked),8.95
2,Cc1c(-n2c(SCC(=O)NC(C)C(C)C)nc3ccccc3c2=O)c(=O)n(-c2ccccc2)n1C (centres unmarked),11.7
3,COc1ccccc1N1CCN(C2CCCN(S(=O)(=O)c3ccccc3)C2)CC1 (centres unmarked),-3.88
4,Cc1ccc(/C=C/C(=O)NCCCN2CCN(CCCNC(=O)/C=C/c3ccc(C)o3)CC2)o1,-22.7
5,CCOC(=O)c1sc2nc3c(SCCC#N)cc(C(=O)c4cc(F)ccc4O)cn3c(=O)c2c1C,0.49
6,COn1c(SCc2ccc(Cl)cc2)nc2ccccc2c1=O,11.9
7,O=c1cccc2n1CC1CC2CN(c2nc(N3CCCCC3)nc(N3CCCCC3)n2)C1 (centres unmarked),-11.6
8,CCOC(=O)N1CCN(C(=O)CN(C)S(=O)(=O)c2ccc(OCC)cc2)CC1,6.94
9,CC(OC(=O)Cc1coc2ccc3ccccc3c12)C(=O)Nc1ncc(Cl)cc1Cl (centres unmarked),-1.25
10,Cc1ccc(C)c(NC(=O)C2CC3c4ccccc4C2c2ccccc23)c1 (centres unmarked),9.03
11,COC(=O)/C=C1/N/C(=N\c2nc(C)cc(C)n2)N(c2ccc(C)c(C)c2)C1=O,-2.26
12,Cc1cccn2c(=O)c3cc(C(=O)NCCN4CCOCC4)c(=N)n(CCCN4CCOCC4)c3nc12,16.7
13,COc1ccc(C)cc1NC(=O)CCN1CCCC1,10.6
14,COc1ccc(N2CCC(CNC(=S)Nc3cc(C)ccc3C)C2)cc1 (centres unmarked),8.12
15,COC(=O)c1c(N2C(=O)Nc3ccccc3N2O)sc(C)c1C,10.6
16,COC(=O)COc1ccc(C2NC(=O)NC(c3ccccc3)=C2C(C)=O)cc1OC (centres unmarked),14.5
17,COc1ccc(/C=N/NC(=O)Cc2ccc(Cl)cc2)cc1OC,5.65
18,CN(C)C1(CNC(=O)C2CCN(S(=O)(=O)c3cc(Cl)ccc3Cl)CC2)CCCCC1,-32.8
19,CC(=O)Nc1ccccc1-c1nc2ccc(C(=O)N3CCN(c4cc(C)ccc4C)CC3)cc2[nH]c1=O,2.69
20,CC1C(=O)Nc2ccc(S(=O)(=O)N3CCN(c4ccccc4F)CC3)cc2NC1=O (centres unmarked),-12.7
21,COc1ccc(Cn2c(C)c(C)c(C#N)c2NC(=O)Nc2cccc(Cl)c2)cc1,8.52
22,COc1ccc(N2CCN(C(=O)COC(=O)c3ccc(OC(F)F)cc3)CC2)cc1,-5.89

row,SMILES,"hERG current change (%, negative = inhibition) at 1uM [%]"
1,COC(=O)c1ccc(COc2ccc(C=O)cc2)o1,6.14
2,O=C(Nc1ccccc1)c1ccc(S(=O)(=O)N2CCC(C(=O)O)CC2)cc1,19
3,Cc1ccc(C2C(C(=O)c3ccco3)=C(O)C(=O)N2c2ncccn2)cc1 (centres unmarked),9.03
4,COc1ccc(-n2cnnc2SCc2cnc(-c3ccccc3)s2)cc1,10.4
5,COCC(=O)Nc1nnc(Cc2ccc(OC)cc2)s1,10.5
6,CC(C)(C)C1CCC(=NNC(=O)c2ccccc2-n2cccc2)CC1 (centres unmarked),11.6
7,COc1ccccc1C(c1nnnn1C1CCCC1)N1CCN2CCCC2C1 (centres unmarked),0.609
8,CCCCn1c(N)c(N(CC)C(=O)C2=NN(c3ccccc3)C(=O)CC2)c(=O)[nH]c1=O,12.6
9,COC(=O)[C@H](CCSC)NC(=O)[C@@H](Cc1cnc[nH]1)NC(=O)OCc1ccccc1 (Cbz-[dH]-Met-OMe),17.3
10,CC1CN(c2nc(Nc3ccccc3F)nc(N)c2[N+](=O)[O-])CC(C)O1 (centres unmarked),-5.06
11,Cn1cccc1-c1nc2ccccc2n1C,9.17
12,O=C(NNS(=O)(=O)c1ccc(F)cc1)c1ccccc1,15.9
13,CC(C)C(c1nnnn1C1CCCCC1)N1CCc2ccccc2C1 (centres unmarked),6.57
14,CN(c1ccccc1)S(=O)(=O)c1cccc(NC(=O)Cn2cnc3ccccc3c2=O)c1,3.98
15,Cc1ccc(S(=O)(=O)N(Cc2ccc(F)cc2)Cc2ccco2)cc1,12.5
16,CCOC(=O)N1CCC(N(CCN(C)C)C(=S)Nc2ccccc2OC)CC1,-6.5
17,CCN(CC)c1nc(-c2ccccc2)ncc1S(=O)(=O)c1ccc(C)cc1,12.9
18,COc1ccc(CNC(=O)CN(Cc2ccccc2)C(=O)c2csnn2)cc1,-13.1
19,Cc1ccc(NC(=O)c2ccco2)c(NC(=O)C2CCCO2)c1 (centres unmarked),6.38
20,Cl.O=C(O)CNCC1COc2ccccc2O1 (centres unmarked),-1.33
21,CCOC(=O)C1CCCN(c2ncnc3c2oc2ccccc23)C1.Cl (centres unmarked),4.28
22,O=C(Cc1ccccc1)Nc1ccccc1C(=O)NCC1CCCO1 (centres unmarked),10.1

row,SMILES,"hERG current change (%, negative = inhibition) at 1uM [%]"
1,CC(OC(=O)c1cc2c(ccc3ccccc32)oc1=O)c1nc2ccccc2s1 (centres unmarked),12.1
2,O=C(Nc1cccc2nsnc12)c1cccs1,23.3
3,C=C(C)CSc1nnc([C@@H](N)Cc2c[nH]c3ccccc23)o1.Cl,6.8
4,Cc1ccccc1N1CC(C(=O)N2CCCCCC2)CC1=O (centres unmarked),4.84
5,CCCCc1nnc(NC(=O)C2CC(=O)N(c3ccc4c(c3)OCCO4)C2)s1 (centres unmarked),5.48
6,COc1cc(S(=O)(=O)NCCCn2ccnc2)ccc1F,15.4
7,O=C(CNC(=O)c1cc(=O)[nH]c2ccccc12)Nc1ccc(F)c(F)c1,5.43
8,COc1ccc(N2C(=O)CC(Nc3ccc(F)cc3)C2=O)c([N+](=O)[O-])c1 (centres unmarked),10.2
9,COCCNC(=O)CCCn1c(=O)c2cc(OC)c(OC)cc2n(CC(=O)Nc2ccc(F)cc2)c1=O,10.2
10,CC(C)(C)NS(=O)(=O)c1ccc(N2C(=O)c3ccccc3C2=O)cc1,5.85
11,Cc1c(-c2cc(Br)ccc2O)nc2cc3c(cc2c1C)OCO3.Cl,9.02
12,CSc1ccccc1NC(=O)C1CC(c2c(F)cccc2Cl)=NO1 (centres unmarked),11.4
13,COc1ccc(Cl)cc1C(=O)CSc1nnnn1C1CCCC1,2.52
14,CCCCN(CCCC)CCNC(=O)CN1C(=O)CSc2ccc(S(=O)(=O)N3CCOCC3)cc21,-3.76
15,O=C(NCc1ccc2c(c1)OCO2)c1ccc2snnc2c1,1.17
16,CC(=O)Oc1ccc2nc(/C=C/c3ccccc3)oc(=O)c2c1,16.6
17,CC1=CC(c2ccccc2)n2ncnc2N1 (centres unmarked),3.76
18,CCN1CCN(c2ccc(NC(=O)c3ccc(OC)c(S(=O)(=O)N4CCCC4)c3)cc2)CC1,12.6
19,Cc1oc2ccc(NS(=O)(=O)c3ccccc3)cc2c1C(=O)Nc1ccccc1,34.4
20,COc1cc(C(=O)N[C@H](C(=O)NC2CCCCCC2)C(C)C)cc(OC)c1OC,-1.97
